Measurements as given in PubChem BioAssay AID1345083 (National Center for Advancing Translational Sciences (NCATS), 2018).
About 6,200 (6.6%) of roughly 94,000 compounds were called active. Inconclusive means that the source gave no clear call. Such entries were picked first, then a sample of the others. Calls come from the whole dose curve; as a rule, active = well fitted inhibition curve with a large enough effect; inconclusive = small, poorly fitted or top-dose-only effect; inactive = flat fitted curve, though single readings scatter. Where the call is inconclusive, the potency comes from a doubtful curve fit.

Experiment: Cytotoxic Profiling in HEK 293 Cell Line of Diverse Libraries Using Quantitative High-Throughput Screening; note: nearly all actives have a fitted effect of over 60% in size
Settings: HEK 293 viability, ATP luminescence (CellTiter-Glo), 48-72 h; series mostly up to 115 µM
In short: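 ATP-coupled CellTiter-Glo luminescence served as viability read-out, recorded 10 min after reagent addition at room temperature. HEK 293 cells, 250 cells/well, had been incubated with pintool-transferred compound for 48 or 72 hr at 37 degree Celsius.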
Potency is the fitted concentration of half-maximal effect; tags give direction and shape of the fitted curve.

Structure (SMILES)	Potency
CC1(C(=O)NC2CC2)CCc2cnc(Nc3ccccc3)nc21 (centres undefined)	active: 39.8 µM
CCc1nnc(CN(C)C(=O)c2cccc(CCC(C)(C)O)c2)o1	inactive
Cc1cccc(CN2CCCC3(CCN(Cc4cccc(O)c4)C3)C2)c1 (centres undefined)	inconclusive: 79.4 µM [inhibitor, partial curve, poor fit]
Cc1noc(C)c1CC(=O)N1CC[C@@H]2CN(S(C)(=O)=O)[C@@H]2C1	inconclusive: 100 µM [inhibitor, single point]
O=C(Cc1c[nH]c2ncc(-c3ccccc3)cc12)NC1CCOCC1	inconclusive: 126 µM [inhibitor, single point]
CN1C[C@@H](NS(=O)(=O)c2ccccc2)C[C@H]1c1nc(-c2ccc(F)cc2)no1	active: 100 µM
Cc1nnc([C@H]2CCN(CCCc3ccccc3)C2)o1	inactive
CC(C)CCN1CCCC2(CC(c3cccc(C(F)(F)F)c3)=NO2)C1 (centres undefined)	inconclusive: 63.1 µM [inhibitor, partial curve, poor fit]
Cc1noc(C)c1S(=O)(=O)N(C)Cc1cccc(C(F)(F)F)c1	inconclusive: 56.2 µM [inhibitor, partial curve, poor fit]
CCN(CC)C(=O)c1cc2c(s1)CCC(C(=O)Nc1ccc(OC)c(F)c1)C2 (centres undefined)	inconclusive: 44.7 µM [inhibitor, partial curve, poor fit]
COc1ccc(OCC2(C)COc3ccc(C(=O)NCCN4CCOCC4)cc3N2)cc1 (centres undefined)	inconclusive: 112 µM [inhibitor, partial curve, poor fit]
N#Cc1ccc(CN2CCc3n[nH]c(=O)n3CC2)cc1	inactive
Cc1ccsc1C(=O)N1CCCN(C)c2ccccc21	inconclusive: 56.2 µM [inhibitor, partial curve, poor fit]
CC1=C(C(=O)N2CC(c3noc(COc4ccc(C)cc4)n3)C2)C2(CCCCC2)OC1=O	inconclusive: 89.1 µM [inhibitor, single point]
COCCN1C(=O)c2ccccc2C(C(=O)NCc2ccccc2OC)C12CCCC2 (centres undefined)	inconclusive: 39.8 µM [inhibitor, partial curve, poor fit]
CC(=O)Nc1ccccc1-c1c(C)nn2c1N(C(=O)Cc1cccc(Cl)c1)CCC2	inactive
CC1=C[C@@H](CN2CCOCC2)[C@H](C(C)C)C[C@H]1Cc1nnc(C)o1	inconclusive: 100 µM [inhibitor, partial curve]
COc1cccc(CN(C)C2CCc3ccccc32)c1 (centres undefined)	inconclusive: 100 µM [inhibitor, partial curve]
Cc1oc2c(c1C(=O)NC1CCN(C)CC1)CN(Cc1ccc(F)cc1)CC2	inconclusive: 50.1 µM [inhibitor, partial curve, poor fit]
Cc1ccc(-c2cccc(C(=O)N3CCCC(O)(CN4CCCC4)C3)c2)o1 (centres undefined)	inconclusive: 31.6 µM [inhibitor, partial curve, poor fit]
NC(=O)[C@@H]1CN(C(=O)c2cnccn2)C[C@H]1COc1ccccc1	inactive
Cc1cccc(C)c1NC(=O)N1CCC(OC2CCN(Cc3ccccc3)CC2)CC1	inconclusive: 15.8 µM [inhibitor, full curve, poor fit]

Structure (SMILES)	Potency
COc1ccc(NC(=O)c2ccc3c(c2)OCCN(CCC(F)(F)F)C3)c(F)c1	inconclusive: 8.91 µM [inhibitor, full curve, poor fit]
Fc1ccc(C2Cn3nnc(-c4nc(C5CCCCC5)no4)c3CO2)cc1 (centres undefined)	inactive
COc1cccc(-c2cccc(C(=O)N3CCN(C(=O)c4ccccc4F)CC3)c2)c1	inconclusive: 50.1 µM [inhibitor, partial curve, poor fit]
COc1ccc(Nc2ccnc(N3CCC(N[S+](=O)([O-])c4ccccc4)CC3)n2)cc1	inconclusive: 39.8 µM [inhibitor, partial curve, poor fit]
O=C(c1ccco1)N1CCN(C(=O)c2nnn3c2COC(c2ccccc2)C3)CC1 (centres undefined)	inactive
CN(C)C(=O)N1CCCC(CCc2ccccc2C(F)(F)F)C1 (centres undefined)	inconclusive: 79.4 µM [inhibitor, partial curve, poor fit]
CC(=O)Nc1ccc(C(=O)NC[C@@H]2C=C(C)[C@H](CC(=O)NCCN3CCOCC3)C[C@H]2C(C)C)cc1	inactive
COc1ccccc1-c1cccc(C(=O)N2CCN(C(=O)c3ccccc3Cl)CC2)c1	inconclusive: 50.1 µM [inhibitor, partial curve, poor fit]
CSc1cccc(CN(C)C(=O)c2ccc(CCC(C)(C)O)cc2)c1	inconclusive: 50.1 µM [inhibitor, partial curve, poor fit]
COc1ccc(-c2nc(C3CC(=O)N(c4ccc(F)c(Cl)c4)C3)no2)cc1OC (centres undefined)	inconclusive: 89.1 µM [inhibitor, single point]
COc1ccc(-c2cccc(C(=O)NCc3ccc(F)cc3)c2)nn1	active: 89.1 µM
CSc1cccc(NC(=O)Cn2ccn3nc4c(c3c2=O)CCCCC4)c1	inconclusive: 89.1 µM [inhibitor, single point]
CC[C@H]1CN(C(=O)c2ccc(F)cc2)CC[C@H]1CC(=O)NCc1ccccc1	inactive
CN1CCCCC(CC(=O)O)C1=O (centres undefined)	inactive
O=C(Nc1cccnc1)O[C@H]1COCCN(c2nc3ccccc3s2)C1	inactive
C[C@]12CC[C@H](O)CC1=CCC[C@@H]2OC(=O)Nc1ccccc1	inconclusive: 89.1 µM [inhibitor, single point]
CC(C)N1CCC(N2CCCC2C(=O)Nc2cccc(-n3cccn3)c2)CC1 (centres undefined)	inactive
O=C(C1CCCC1)N1CC2(CCCN(C3CCCCC3)C2)Cc2ccccc21 (centres undefined)	inconclusive: 56.2 µM [inhibitor, partial curve, poor fit]
Cc1cccc(OCC(=O)N2CCC3(CC2)NC(=O)N(Cc2ccccc2)C3=O)c1	inconclusive: 79.4 µM [inhibitor, single point]
COc1ccc(-c2onc(C)c2C(=O)NCCc2ccc(F)cc2)cc1	inconclusive: 56.2 µM [inhibitor, partial curve, poor fit]
Cc1nn(-c2ccccc2)c2c1C(C)N(C1CCN(C(=O)NC3CCCC3)C1)C2=O (centres undefined)	inconclusive: 56.2 µM [inhibitor, partial curve, poor fit]
O=C(c1cccnc1)N1CCC(n2cc(-c3nc(-c4ccccc4)no3)nn2)CC1	inconclusive: 50.1 µM [inhibitor, partial curve, poor fit]

Structure (SMILES)	Potency
CCc1nc(C)c(C(=O)N2CCC(c3[nH]ncc3-c3ccccc3C)CC2)o1	inconclusive: 50.1 µM [inhibitor, partial curve, poor fit]
COc1ccc(CC(=O)N[C@@H]2CN(Cc3ccccc3)C[C@H]2CO)cc1	inconclusive: 100 µM [inhibitor, partial curve, poor fit]
CN1CCc2c([nH]c3ccccc23)C12CCN(C(=O)c1cccs1)CC2	inconclusive: 89.1 µM [inhibitor, single point]
COc1ccc2c(c1)C(C(=O)N1CCN(c3ccc(C(=O)O)cc3)CC1)=CC(C)(C)CO2	inactive
CNC(=O)C1CCN(C(=O)c2ccc(-c3cccs3)cc2)CC1	inconclusive: 100 µM [inhibitor, partial curve]
CCC1Oc2ccc(NC(=O)Cc3cccs3)cc2CN(Cc2ccc(OC)cc2)C1=O (centres undefined)	inconclusive: 44.7 µM [inhibitor, partial curve, poor fit]
O=C(Nc1ccccc1)c1cnc2n1CCN(Cc1c[nH]c3ccccc13)CC2	inconclusive: 126 µM [inhibitor, single point]
C#CCNC(=O)[C@@H]1Cc2cn(Cc3c(C)noc3C)c3cccc(c23)[C@H](CC(C)C)N1	active: 39.8 µM
O=C(O)CCC(=O)N1Cc2ccccc2CC2(CCCN2Cc2ccccc2)C1 (centres undefined)	inactive
CC(=O)N[C@H]1CCN(C(=O)C[C@@H]2[C@H](O)CCC3[C@](C)(CO)[C@H](OC(=O)Nc4cccc(F)c4)CC[C@]32C)C1 (some centres undefined)	inactive
COc1ccc(-c2cnc(Nc3cccc(N[S+](C)(=O)[O-])c3)c3c2CCO3)cn1	active: 89.1 µM
Fc1ccc(CCNc2cc(Cl)nc3ccnn23)cc1	inconclusive: 28.2 µM [inhibitor, partial curve, poor fit]
COCCn1c(C)cnc1CC1CCN(C(=O)CC2CCCCC2)C1 (centres undefined)	inactive
Cn1ncc2c(C(=O)NCc3ccc4c(c3)OCO4)cc(-c3ccc(C(F)(F)F)cc3)nc21	inactive
Cc1oc(-c2cccc(C(F)(F)F)c2)nc1CN(C)Cc1ccon1	inconclusive: 79.4 µM [inhibitor, partial curve, poor fit]
N#Cc1cccc(-c2c(C(=O)NCc3ccc(Cl)cc3)nc3sccn23)c1	inconclusive: 44.7 µM [inhibitor, partial curve, poor fit]
O=C(NC1CCCCCC1)c1nc2sccn2c1-c1ccccc1	inconclusive: 28.2 µM [inhibitor, full curve, poor fit]
CCc1nc(C)c(C(=O)N2CCOC(CCCC(C)C)C2)o1 (centres undefined)	inconclusive: 31.6 µM [inhibitor, partial curve, poor fit]
Fc1ccc(-c2cc(C3CCNCC3)[nH]n2)cc1	inconclusive: 89.1 µM [inhibitor, single point]
c1ccc2ncc(CN3CCC[C@H]3c3nc(-c4ccc(OC5CCCCC5)nc4)no3)cc2c1	inconclusive: 44.7 µM [inhibitor, partial curve, poor fit]
